Test results from PubChem BioAssay AID360 (National Center for Advancing Translational Sciences (NCATS), 2006).
Hit rate of the full screen: of about 48,000 compounds, about 550 (1.1%) were called active. Inconclusive results (about 4%) are left out. No stated cut-off is given here; in the data, active means potency below about 15 µM; inconclusive means mostly about 16 µM to 33 µM; inactive means weaker than that. Some of the results follow.

target: Lysosomal acid glucosylceramidase (Homo sapiens) (UniProt P04062); experiment: Glucocerebrosidase; settings: purified enzyme, resorufin glucoside fluorescence (screen aimed at inhibitors), 20 min; series mostly up to 77 µM;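 further: the screen sought inhibitors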
In short: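 Wild-type enzyme at 0.2 nM final in 50mM citric acid/KH2PO4, 10mM sodium taurocholate, 0.01% tween-20, pH 5.9, with resorufin beta-D-glucopyranoside at 30 uM final. Compounds titrated, 20 min at RT, red fluorescence read; AC50 from titration.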
Potency means the concentration at half of the fitted maximal effect.

UniProt P04062, sequence (P04062 whole entry, looked up): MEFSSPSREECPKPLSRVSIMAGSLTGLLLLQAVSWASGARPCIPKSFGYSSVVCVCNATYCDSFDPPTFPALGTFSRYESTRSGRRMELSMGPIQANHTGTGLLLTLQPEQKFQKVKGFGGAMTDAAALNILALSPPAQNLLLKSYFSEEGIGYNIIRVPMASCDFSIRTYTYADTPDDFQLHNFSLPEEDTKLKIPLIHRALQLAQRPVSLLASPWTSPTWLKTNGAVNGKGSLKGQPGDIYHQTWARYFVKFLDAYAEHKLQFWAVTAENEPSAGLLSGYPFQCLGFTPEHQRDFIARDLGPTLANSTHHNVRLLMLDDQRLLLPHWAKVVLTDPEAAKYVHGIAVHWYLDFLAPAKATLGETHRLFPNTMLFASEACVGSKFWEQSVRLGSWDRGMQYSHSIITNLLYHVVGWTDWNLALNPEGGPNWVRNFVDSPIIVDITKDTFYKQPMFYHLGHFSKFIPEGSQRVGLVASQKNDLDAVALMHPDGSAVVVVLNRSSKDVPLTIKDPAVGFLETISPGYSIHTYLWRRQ

Compound | Potency
COc1cccc(-c2nn(-c3ccccc3)cc2C(=O)O)c1 | inactive: > 76.9 µM
Cc1ccc(C(=O)CSc2ncn[nH]2)cc1 | inactive: > 76.9 µM
CC(=O)NCCn1ccc2ccccc21 | inactive: > 76.9 µM
CCOc1ccc(-c2nc(CSc3nncs3)cs2)cc1OC | inactive: > 76.9 µM
CN(C)S(=O)(=O)c1ccc(N2CCN(S(=O)(=O)c3ccc(F)cc3)CC2)c(Cl)c1 | inactive: > 76.9 µM
COc1ccc(OC)c(S(=O)(=O)N(C)CC(=O)N2CCN(c3ccccc3)CC2)c1 | inactive: > 76.9 µM
Cc1ccc(NC(=O)CSCc2c(C)noc2C)cc1C | inactive: > 76.9 µM
O=C(OCc1nc2ccccc2s1)c1cccs1 | inactive: > 76.9 µM
CCOC(=O)c1cnc2c(-c3ccccc3)cnn2c1N | inactive: > 76.9 µM
CCOC(=O)CSc1nc2cc(C(=O)N3CCC(C(N)=O)CC3)ccc2c(=O)n1-c1ccccc1 | inactive: > 76.9 µM
CN(C(=O)COc1ccc(C(C)(C)C)cc1)C1CCS(=O)(=O)C1 (stereo unspecified) | inactive: > 76.9 µM
CCOc1ccc2nc(C)cc(C(=O)O)c2c1 | inactive: > 76.9 µM
CC1CCN(c2nc3c(c(=O)n(C)c(=O)n3C)n2Cc2ccccc2)CC1 | inactive: > 76.9 µM
O=C(Cn1cnc2c(nnn2Cc2ccc(Cl)cc2)c1=O)N1CCCc2ccccc21 | inactive
O=c1c(C(c2nnnn2C2CCCCC2)N2CCCCC2)coc2ccc(Cl)cc12 (stereo unspecified) | inactive: > 76.9 µM
CCOC(=O)N1CCN(c2c(-c3ccccc3)c3cc(Cl)ccc3[nH]c2=O)CC1 | inactive: > 76.9 µM
Cc1ccccc1NC(=O)C1CCCN(S(=O)(=O)c2c(C)noc2C)C1 (stereo unspecified) | inactive: > 76.9 µM
Cn1c(N2CCN(C(=O)C34CC5CC(CC(C5)C3)C4)CC2)nc2ccccc21 | inactive: > 76.9 µM
CCOC(=O)N=S(N)(=O)c1ccc(Cl)cc1 (stereo unspecified) | inactive: > 76.9 µM

Compound | Potency
O=C(CCC1CCCC1)NCc1ccccn1 | inactive: > 76.9 µM
CCn1cc(C(=O)NCCCOC(C)C)c2cc(OC)c(OC)cc2c1=O | inactive: > 76.9 µM
Cc1ccc(-c2nnn(CC(=O)N(Cc3ccccc3)C(C(=O)NC3CCCC3)c3ccncc3)n2)o1 (stereo unspecified) | inactive: > 76.9 µM
CS(=O)(=O)N1CCCC(C(=O)NCCCN2CCC(Cc3ccccc3)CC2)C1 (stereo unspecified) | inactive: > 76.9 µM
COc1cccc(NC(C)C(=O)N2CC(C)OC(C)C2)c1 (stereo unspecified) | inactive: > 76.9 µM
COC(=O)c1ccc(C2/C(=C(/O)c3ccc(OC(C)C)cc3)C(=O)C(=O)N2c2cc(C)on2)cc1 (stereo unspecified) | inactive: > 76.9 µM
Cc1ccccc1N(CC(=O)NC1CCCC1)C(=O)CS(=O)CC(=O)Nc1ccc2c(c1)OCO2 (stereo unspecified) | inactive: > 76.9 µM
COc1ccc(C2c3c(oc4ccc(Cl)cc4c3=O)C(=O)N2Cc2ccco2)cc1OC (stereo unspecified) | inactive: > 76.9 µM
COCCCn1c(SCC(=O)N2CCCCC2C)nnc1-c1ccco1 (stereo unspecified) | inactive: > 76.9 µM
Cc1cc(=O)[nH]c2c1c(C)nn2C1CCCC1 | inactive: > 76.9 µM
O=C(Nc1ccc(Cl)cc1)C(c1ccccc1)N(CCO)CCO (stereo unspecified) | inactive: > 76.9 µM
Cc1cccc(-c2nc(CN3CCCC(C(=O)NC4CCC(C)CC4)C3)c(C)o2)c1 (stereo unspecified) | inactive
N#Cc1nc(-c2ccco2)oc1N1CCC(C(N)=O)CC1 | inactive: > 76.9 µM
CN(c1ccc(C(=O)N2CCCCC2)cc1)S(=O)(=O)c1ccccc1 | inactive: > 76.9 µM
COc1cc(CC(=O)Nc2ccc(S(=O)(=O)N(C)C)cc2)cc(OC)c1OC | inactive: > 76.9 µM
CCN1C(=O)/C(=c2\o/c(=C3\C=Cc4ccccc4N3CC)c(=O)n2CC)SC1=S | inactive: > 76.9 µM
Cc1cc(C)nc(SCCS(=O)(=O)Cc2ccccc2)n1 | inactive: > 76.9 µM
CCOC(=O)c1[nH]c(=O)c2ccccc2c1O | inactive: > 76.9 µM
O=C1CC(N2CCN(c3ccc(F)cc3)CC2)C(=O)N1Cc1cccs1 (stereo unspecified) | inactive: > 76.9 µM

Compound | Potency
CCc1ccc(NC2=NCC(=O)N2Cc2ccc3c(c2)OCO3)cc1 | inactive
COC(=O)c1ccc(CSc2nc3c(cnn3-c3ccc(F)cc3)c(=O)[nH]2)o1 | inactive: > 76.9 µM
CCC1CCCCN1CCCNC(=O)c1cn(CC(C)C)c(=O)c2cc(OC)c(OC)cc12 (stereo unspecified) | inactive: > 76.9 µM
CCN1CCN(c2cc(C)c3cc(NC(=O)c4cncc(Br)c4)ccc3n2)CC1 | active: 3.7 µM
Cc1ccc(-n2nnc3c(=O)n(CC(=O)N4CCC(C)CC4)cnc32)cc1 | inactive: > 76.9 µM
Cc1ccc(Nc2nc(N)nc(CN3CCN(C)CC3)n2)cc1 | inactive: > 76.9 µM
CC(CN1CCOCC1)OC(=O)c1ccc2c(c1)OCCO2 (stereo unspecified) | inactive: > 76.9 µM
Nc1ccnn1Cc1cccnc1 | inactive: > 76.9 µM
CCCCNC(=O)CSc1nc2cc3c(cc2c(=O)n1CCCN(CC)CC)OCO3 | inactive: > 76.9 µM
COc1ccc(C(C)=O)cc1CN1C(=O)C(C)N(c2ccc(C)cc2)C1=O (stereo unspecified) | inactive: > 76.9 µM
CCOC(=O)N1CCN(C(=O)CSc2nc3c(c(=O)n2-c2ccccc2OC)SCC3)CC1 | inactive: > 76.9 µM
Cn1c(=O)n(Cc2ccc(F)cc2)c(=O)c2c1nc1n2CCCN1C1CCCCC1 | inactive: > 76.9 µM
CC(C)n1c(C(=O)OCC(=O)NCc2ccc3c(c2)OCO3)cc2occc21 | inactive: > 76.9 µM
C=CCN1C(c2ccc(OCC)cc2)=CS/C1=C(\C#N)c1nnc2n1CCCCC2 | inactive: > 76.9 µM
Cc1ccc(S(=O)(=O)N2CCCC2C(=O)Oc2ccccc2)cc1 (stereo unspecified) | inactive: > 76.9 µM
COc1ccccc1OCc1nnc(SCC(=O)c2cc(Cl)ccc2OC)o1 | inactive: > 76.9 µM
Cc1cnc(C(=O)OCC(=O)Nc2ccc(Oc3ccccc3)cc2)cn1 | inactive: > 76.9 µM
CCOC(=O)C1=C(C)NC2=C(C(=O)CC(C)(C)C2)C1c1cccc(C)n1 (stereo unspecified) | inactive: > 76.9 µM
